Hit rate of the full screen: of about 110,000 compounds, about 230 (0.21%) showed an effect of 50% or more. The list shows a part of the results.
Molecular target: DPAP1 (Plasmodium falciparum, UniProt Q8IIJ9)
Experiment: primary screen, percent inhibition; read by cleavage of a fluorogenic dipeptide substrate; higher = more effect of the substance
Set-up: species or system P. falciparum D10 trophozoite lysates; single well
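Note: 30 min substrate incubation versus DMSO and 10 µM JCP410 controls.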

Chain of DPAP1 (Q8IIJ9 whole entry, looked up): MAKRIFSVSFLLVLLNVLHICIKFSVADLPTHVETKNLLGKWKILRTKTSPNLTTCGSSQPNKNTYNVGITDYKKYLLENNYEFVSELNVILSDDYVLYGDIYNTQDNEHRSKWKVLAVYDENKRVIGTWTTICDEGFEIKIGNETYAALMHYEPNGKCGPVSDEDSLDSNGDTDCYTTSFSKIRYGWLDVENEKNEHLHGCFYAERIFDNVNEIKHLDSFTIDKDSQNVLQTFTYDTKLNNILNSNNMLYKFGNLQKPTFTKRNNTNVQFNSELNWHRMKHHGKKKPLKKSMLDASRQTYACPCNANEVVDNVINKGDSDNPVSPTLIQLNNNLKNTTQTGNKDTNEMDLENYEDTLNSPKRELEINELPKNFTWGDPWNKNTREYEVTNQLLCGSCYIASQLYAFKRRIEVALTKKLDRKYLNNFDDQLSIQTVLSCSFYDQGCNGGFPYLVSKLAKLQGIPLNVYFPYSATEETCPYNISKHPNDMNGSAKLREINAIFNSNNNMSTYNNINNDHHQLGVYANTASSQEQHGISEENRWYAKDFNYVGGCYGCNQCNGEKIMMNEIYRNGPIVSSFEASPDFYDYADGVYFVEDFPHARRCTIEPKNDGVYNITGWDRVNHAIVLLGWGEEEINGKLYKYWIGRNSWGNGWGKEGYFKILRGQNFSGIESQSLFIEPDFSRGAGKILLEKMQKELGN

Going from `CC12CN3CC(C)(CN(C1)C31C(=O)Nc3ccccc31)C2O` (stereo not shown) to `CCCC(=O)C1=C(N(C)c2ccccc2)CC(C)(C)CC1=O`, the “% Inhibition @ 10 uM” value rises from -1.99% to 2.45%.

Compared with `COCC(=O)n1nc(-c2ccc(Cl)cc2)nc1NCc1ccc(OC)cc1`, `COc1ccc(-c2cnc(NCc3ccc(C(C)C)cc3)n2C)cc1` is higher in “% Inhibition @ 10 uM” value: 3.93% for the first, 5.5% for the second.

Compared with `Cc1ccc(C2c3c(-c4c(C)cc(C)cc4O)n[nH]c3C(=O)N2CCCO)cc1` (stereo not shown), `CCCCCCN1C(=O)C(O)=C(C(C)=O)C1c1ccc(Br)cc1` (stereo not shown) is higher in “% Inhibition @ 10 uM” value: -1.71% for the first, 1.35% for the second.

Going from `Cc1nn(C)c(C)c1S(=O)(=O)N1CCC(C(=O)NC(c2ccccc2)c2ccccc2)CC1` to `O=S(=O)(c1ccc(Br)c2ccccc12)N1CCN(Cc2ccccc2)CC1`, the “% Inhibition @ 10 uM” value falls from 2.39% to -6.94%.

Going from `COc1ccccc1C1=NOC(C(=O)N(C)C2CCCCC2)C1` (stereo not shown) to `O=C(c1[nH]nc2ccccc12)N1CCCCC1`, the “% Inhibition @ 10 uM” value falls from 9.05% to -0.403%.

Compared with `Fc1ccccc1N1CCN(C2CN3CCC2CC3)CC1` (stereo not shown), `Fc1ccccc1-c1nnc(CN2CCN(c3ccccn3)CC2)o1` is higher in “% Inhibition @ 10 uM” value: -0.0908% for the first, 4.47% for the second.

First: COc1ccc(S(=O)(=O)Nc2c(C)nc3ncnn3c2O)cc1OC
Second: CNC(=O)C1=NCC2(CCCC2)c2cc(OC)c(OC)cc21
The “% Inhibition @ 10 uM” value of the first is lower: 1.3% for the first, 2.65% for the second.

Compared with `Cc1ccc(Sc2cc(C(=O)N3CCC4(CC3)OCCO4)c3ccccc3n2)cc1`, `Cc1ccc2oc(-c3ccccc3)c(CN3CCOCC3)c(=O)c2c1` is higher in “% Inhibition @ 10 uM” value: -6.49% for the first, -5.4% for the second.

First: CCS(=O)(=O)c1nc(S(=O)(=O)c2ccc(C)cc2)c(NCCCN2CCOCC2)s1
Second: Cc1cc(C)c2c(NC(=O)CN3CCOCC3)csc2n1
The “% Inhibition @ 10 uM” value of the first is lower: -4.04% for the first, -1.82% for the second.

Going from `Fc1ccc(COc2ccc(Cl)cc2CNCC2CCCO2)cc1` (stereo not shown) to `O=C(C1=C(O)C(=O)N(CC2CCCO2)C1c1ccc(Cl)cc1)c1ccccc1` (stereo not shown), the “% Inhibition @ 10 uM” value rises from 2.01% to 2.64%.

Compared with `CCOc1ccc(NC=C2C(=O)CC(c3ccco3)CC2=O)cc1` (stereo not shown), `CCOc1ccc(/C=C2N=C(/C=C/c3ccc(C)cc3)OC\2=O)cc1` is higher in “% Inhibition @ 10 uM” value: 0.673% for the first, 3.42% for the second.

Compared with `Cc1cccc(C(=O)Nc2nc(C)cc(C)n2)c1`, `Cc1cccc(CNc2nc3nc(C)cc(O)n3n2)c1` is higher in “% Inhibition @ 10 uM” value: -7.11% for the first, -0.671% for the second.

Compared with `CCOC(=O)c1sc2nc(SCC(=O)N3CCCC3)n(Cc3ccc(C)cc3)c(=O)c2c1C`, `Cc1c2cnn(CC(=O)NCc3ccco3)c(=O)c2c(C)n1Cc1ccc(Cl)cc1` is higher in “% Inhibition @ 10 uM” value: -4.38% for the first, -0.447% for the second.

Going from `COc1ccc(OCCCN2CCCCC2)cc1` to `COc1ccccc1OCC(=O)Nc1ccc(S(=O)(=O)N2CCCCC2)cc1`, the “% Inhibition @ 10 uM” value falls from 0.634% to -0.425%.

Compared with `O=C(Nc1ccccc1[N+](=O)[O-])c1cc(S(=O)(=O)N2CCCCC2)ccc1Cl`, `O=C(Nc1cccc2c1CCCC2)c1cccc([N+](=O)[O-])c1` is lower in “% Inhibition @ 10 uM” value: 3.25% for the first, -4.58% for the second.

Going from `O=S(=O)(c1ccc(Cl)cc1)c1ccc(-c2ccccc2)cc1` to `COc1ccc(S(=O)(=O)Nc2ccc(Nc3ccccc3)cc2)cc1`, the “% Inhibition @ 10 uM” value falls from -0.712% to -2.09%.

Compared with `CN1C2CCC1CC(OC(=O)CCN1CCOCC1)C2` (stereo not shown), `CCOC(=O)N1CCN(S(=O)(=O)N2CCCC(C(=O)NC(C)C)C2)CC1` (stereo not shown) is lower in “% Inhibition @ 10 uM” value: 5.61% for the first, 0.387% for the second.

Compared with `CCn1c(C(=O)N2CCC(C(=O)N3CC(C)CC(C)C3)CC2)cc2sccc21` (stereo not shown), `COc1ccc(CNC(=O)C2CCN(S(=O)(=O)N3CCC4(CC3)OCCO4)CC2)c(OC)c1` is higher in “% Inhibition @ 10 uM” value: -3.58% for the first, -2.99% for the second.

First: O=C(NC(Cc1ccc([N+](=O)[O-])cc1)C(=O)NC(CCc1ccccc1)C(=O)CO)OCc1ccccc1 (stereo not shown)
Second: CC(C)C[C@H](NC(=O)OCc1cccc(Oc2ccccc2)c1)C(=O)NCC#N
The “% Inhibition @ 10 uM” value of the first is lower: -3.14% for the first, 6.03% for the second.

First: CC1(C)Cc2c(C#N)c(N)n(-c3ccccc3)c(=O)c2CO1
Second: CC1CCc2c(sc(NC(=O)c3ccccc3)c2C#N)C1 (stereo not shown)
The “% Inhibition @ 10 uM” value of the first is lower: -8.6% for the first, -2.89% for the second.

Going from `COc1cccc(OC)c1C(=O)Nc1sc2c(c1C(N)=O)CCCC2` to `CCCC1CCc2c(sc(NS(=O)(=O)c3ccc(NC(C)=O)cc3)c2C(N)=O)C1` (stereo not shown), the “% Inhibition @ 10 uM” value rises from -0.725% to 1.96%.

First: O=C(Nc1cccc([N+](=O)[O-])c1)c1c(O)c2ccccc2oc1=O
Second: COc1ccc(NC(=O)c2ccccc2O)cc1Cl
The “% Inhibition @ 10 uM” value of the first is lower: -2.51% for the first, 1.59% for the second.

Going from `CCn1c2ccccc2c2cc(CNCc3ccc(OC)cc3OC)ccc21` to `COc1ccc(-c2c(Cl)nc(NCc3ccc4c(c3)OCO4)c(=O)n2-c2ccccc2)cc1OC`, the “% Inhibition @ 10 uM” value falls from 3.47% to -3.77%.

Going from `COc1cc(/C=C2N=C(/C=C/c3ccccc3)OC/2=O)cc(OC)c1OC` to `COc1cc(C2C(C#N)=C(N)Oc3[nH]nc(-c4ccc5ccccc5c4)c32)cc(OC)c1OC` (stereo not shown), the “% Inhibition @ 10 uM” value falls from 5.94% to 3.42%.

First: O=C(Nc1ccccn1)c1cc2c(Cl)nc3ccccc3c2s1
Second: O=C(O)c1cc(-c2ccccc2F)nc2ccc3ccccc3c12
The “% Inhibition @ 10 uM” value of the first is lower: 3.6% for the first, 19% for the second.

First: Cc1ccc(-c2csc3nc(-c4cccs4)oc(=O)c23)cc1
Second: Cc1ccc(-c2noc(CN(C(=O)c3ccc(C)cc3C)C(C)C)n2)cc1
The “% Inhibition @ 10 uM” value of the first is higher: 3.59% for the first, 2.23% for the second.

First: C[C@H]1CC(=O)[C@@](C)(CCC#N)CN1C
Second: CSc1nc2sc3c(c2c(=O)n1C)CCC(C)C3 (stereo not shown)
The “% Inhibition @ 10 uM” value of the first is higher: -0.261% for the first, -3.49% for the second.

Going from `COc1cc(C(=O)N(Cc2ccc(C)o2)C2CCS(=O)(=O)C2)cc(OC)c1OC` (stereo not shown) to `COc1cc(C2CC(=O)NC3=C2C(=O)CCC3)c(OC)cc1Br` (stereo not shown), the “% Inhibition @ 10 uM” value rises from -6.5% to 0.8%.

First: CC1CCCCN1CC#CC(O)(c1ccccc1)c1ccccc1 (stereo not shown)
Second: OC(CNC1CCCCC1)Cn1c2ccccc2c2ccccc21 (stereo not shown)
The “% Inhibition @ 10 uM” value of the first is higher: 1.24% for the first, 0.219% for the second.

First: Cc1cc(C)c(C(=O)N2CCOCC2)c(Cl)n1
Second: COc1ccc(C(=O)N2CCN(Cc3cccc(C)c3)CC2)cc1
The “% Inhibition @ 10 uM” value of the first is higher: 4.01% for the first, -1.36% for the second.

Compared with `CC(C)OCCCNC(=O)CCn1c(=O)c2cccn2c2cccnc21`, `O=C(CCn1cnc2onc(-c3ccc(F)cc3)c2c1=O)Nc1ccccn1` is lower in “% Inhibition @ 10 uM” value: -1.57% for the first, -6.14% for the second.

First: C#CCOc1c(Br)cc(/C=C2/C(=O)ON=C2C)cc1OCC
Second: COC(=O)c1cc2occc2n1Cc1nc(-c2ccccc2Cl)oc1C
The “% Inhibition @ 10 uM” value of the first is higher: -3.96% for the first, -7.13% for the second.

First: COCCCn1c(=O)c2sccc2n2c(CCCC(=O)O)nnc12
Second: COCCN1C(=O)c2cccnc2C1=O
The “% Inhibition @ 10 uM” value of the first is higher: -1.71% for the first, -4.69% for the second.

Compared with `COCCNC(=O)Cn1ncc2c(=O)oc3ccc(C)cc3c21`, `Cc1ccc2oc(=O)c3cc(C(=O)NCc4ccc(F)cc4)sc3c2c1` is lower in “% Inhibition @ 10 uM” value: 4.74% for the first, -5.62% for the second.

Compared with `CC(=O)c1c(C)n(-c2ccc(N(C)C)cc2)c2ccc(O)cc12`, `Cc1ccc(CCNC(=O)c2ccc3c(c2)c(C)c(C)n3C)cc1` is higher in “% Inhibition @ 10 uM” value: 3.61% for the first, 4.79% for the second.

First: COc1ccccc1CNC(=O)CCc1c(C)c2cc3c(C)c(C)oc3c(C)c2oc1=O
Second: CCOC(=O)c1c(NC(=O)COc2c(C)ccc(C)c2C)sc(C)c1C
The “% Inhibition @ 10 uM” value of the first is higher: 2.54% for the first, -5.08% for the second.

Compared with `Cc1cc(C)c2nc3s/c(=C\c4c(C)[nH]c5ccccc45)c(=O)n3c2c1`, `C=CCn1cc(C=C2C(=O)OC3(CCCC3)OC2=O)c2ccccc21` is lower in “% Inhibition @ 10 uM” value: 4.88% for the first, 1.39% for the second.

Going from `CCOC(=O)N1CCN(C(=O)c2ccc(C#Cc3ccccc3)cc2)CC1` to `O=C(CSc1ncnc2ccccc12)NCC(=O)c1ccccc1`, the “% Inhibition @ 10 uM” value falls from 2.05% to -0.834%.

Compared with `CC(Cc1cccc(C(F)(F)F)c1)NCC1CCCO1` (stereo not shown), `Cc1ccnc(NS(=O)(=O)c2ccc(NC(=O)C(F)(F)F)cc2)n1` is lower in “% Inhibition @ 10 uM” value: 1.9% for the first, -1.08% for the second.

First: O=C(/C=C/c1ccc(Cl)cc1)Nc1cc2cc(Br)ccc2oc1=O
Second: CS(=O)(=O)c1nc(-c2ccc(Br)cc2)cc(-c2ccccc2)c1C#N
The “% Inhibition @ 10 uM” value of the first is higher: 0.997% for the first, -3.75% for the second.

Going from `C=CCN(CC=C)CC(O)Cn1c(C)c(C)c2ccccc21` (stereo not shown) to `COc1cc(CNCCO)cc(Cl)c1OCc1ccccc1`, the “% Inhibition @ 10 uM” value rises from -3.39% to 1.94%.

Going from `CCN(CC)C(=O)CSc1nc(O)cc(O)n1` to `CCN(CCN(C)C)Cc1ccc(NC(C)=O)cc1`, the “% Inhibition @ 10 uM” value falls from 2.65% to -4.04%.

Going from `Cc1ccc(S(=O)(=O)NC2CCCCC2)c2nsnc12` to `O=C(C1CCCO1)N1CCN(S(=O)(=O)c2cccc3nsnc23)CC1` (stereo not shown), the “% Inhibition @ 10 uM” value falls from 3.32% to 0.163%.

First: COc1cc(OC)cc(C(=O)Nc2cccc3cccnc23)c1
Second: Cc1ccc(CNC(=O)Cn2c(SCc3ccccc3F)nc3cccnc32)cc1
The “% Inhibition @ 10 uM” value of the first is higher: 2.82% for the first, -1.18% for the second.

Compared with `Nc1c(C(=O)c2ccccc2)sc2snc(SCC(=O)c3ccccc3)c12`, `O=C(NCc1ccccc1)NS(=O)(=O)c1ccccc1Cl` is lower in “% Inhibition @ 10 uM” value: 7.93% for the first, 2.38% for the second.

Going from `O=C(Cn1ncc2c3ccccc3n(Cc3ccc(F)cc3)c2c1=O)NCc1ccc2c(c1)OCO2` to `Cc1ccc(S(=O)(=O)Nc2ccnc(C(=O)NCc3ccc4c(c3)OCO4)c2)cc1`, the “% Inhibition @ 10 uM” value falls from -1.58% to -6.62%.

Compared with `CC1CC(=O)C2=C(C1)OC(N)=C(C#N)C2c1cccc2ccccc12` (stereo not shown), `O=c1[nH]c(O)c(C2NCCc3ccccc32)c(=O)n1-c1cccc(F)c1` (stereo not shown) is higher in “% Inhibition @ 10 uM” value: -4.94% for the first, 9.97% for the second.

Compared with `CCN1C=CC=C/C1=C/c1ccc2cc(C)ccc2[n+]1CC`, `Fc1ccc(CSc2nc3ccncc3[nH]2)c(Cl)c1` is higher in “% Inhibition @ 10 uM” value: -1.69% for the first, 1.03% for the second.

First: CCO/C(O)=C1\C(C)=Nc2nnnn2C1c1cccnc1 (stereo not shown)
Second: Clc1ccc(-c2cnc3nonc3n2)cc1
The “% Inhibition @ 10 uM” value of the first is higher: 1.18% for the first, -1.11% for the second.

Going from `O=[N+]([O-])c1ccc(/N=C/C=C(\O)c2ccc(Br)cc2)cc1` to `COc1cc(C)c(CN2CCCCC2CO)cc1C` (stereo not shown), the “% Inhibition @ 10 uM” value rises from -2% to 0.273%.

From publication PMC6919601, “Identification of Plasmodium dipeptidyl aminopeptidase allosteric inhibitors by high throughput screening” (PLoS ONE, 2019)
